Laboratory results reported in paper PMC10726135.
The other results are listed elsewhere or left out. At the low end of the ranking the order means little. Measured with an extract: partners may take part in the binding.

The sequences below were run against T1, HNF4alpha8 (COS-7 nuclear extract) (UniProt P41235-5) (assay: protein-binding microarray). Details: COS-7 nuclear extract on double-stranded Agilent 4x180k PBM; binding buffer, salt, pH and temperature not given; high values mean tight binding; double strand, one strand shown; sequences stand for … in …GCCTAGGGAGATTAGAGTATCGGTCGA.
T1 sequence: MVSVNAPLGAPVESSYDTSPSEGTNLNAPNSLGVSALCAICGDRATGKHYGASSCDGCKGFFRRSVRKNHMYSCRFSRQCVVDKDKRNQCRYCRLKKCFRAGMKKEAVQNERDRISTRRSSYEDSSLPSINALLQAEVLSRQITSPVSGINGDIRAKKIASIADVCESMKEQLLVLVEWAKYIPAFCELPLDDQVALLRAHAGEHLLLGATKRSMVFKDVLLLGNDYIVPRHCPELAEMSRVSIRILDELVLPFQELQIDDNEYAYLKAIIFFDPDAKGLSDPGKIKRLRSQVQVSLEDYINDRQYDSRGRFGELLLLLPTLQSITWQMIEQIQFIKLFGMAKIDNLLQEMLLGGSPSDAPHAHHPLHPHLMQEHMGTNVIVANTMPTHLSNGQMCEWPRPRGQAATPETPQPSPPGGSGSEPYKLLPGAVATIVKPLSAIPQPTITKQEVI
With AGCGGAGCATCCCTCGGGCCGGGAAACGCC the binding signal (log2 normalized intensity) was -1.39. For TGACTATAGCGTCTCCTGGCCTCTGTGAAG, the binding signal (log2 normalized intensity) was -1.38. With ACTGCAAGGCAAACACTCAAGGTCCAAACA the binding signal (log2 normalized intensity) was 2.43. With TCCATTTCTAGACACCAAACACAGTTGCTG the binding signal (log2 normalized intensity) was -1.37. With TCGACCTTTGTGGGCTTCAGACATTGCAAA the binding signal (log2 normalized intensity) was 1.17. In the case of TGCCCTTTGCCCTCACTGGTAGAAGGCAGC, the binding signal (log2 normalized intensity) is reported as 5.22. TTGCCCTTCTTGGATGCCCTTCCCTAACCC gave a binding signal (log2 normalized intensity) of 3.04. AGCGTACGCAGGGCGGCCGGCGGAGCGCCG was tested, and the binding signal (log2 normalized intensity) was -1.42. With CCATGCAAATTGCTGACTTTCTGTGTCTTG the binding signal (log2 normalized intensity) was 0.802. For TACATAACCACCACTGGGCAATTGGTTTCC, the binding signal (log2 normalized intensity) was -0.698. TGACCTTGGACTCTGCCCTTGGCCTACTTA was tested, and the binding signal (log2 normalized intensity) was 5.04. In the case of GTAGTTACCTGATGAAGCAATAGGAATCAC, the binding signal (log2 normalized intensity) is reported as -1.23. GGGCGTGAACTGTGACTTTTATCTTAGGTA showed a binding signal (log2 normalized intensity) of 1.52. In the case of CTATCAGGAAACTCTTTCCTAACAGTGAAT, the binding signal (log2 normalized intensity) is reported as -1.16. Work on GCTGCCTTTTAGCTCCATACTTCAAGAAGT yielded a binding signal (log2 normalized intensity) of -1.11. Work on ATGTGACCTTCACCCTGCTGTAAATAAAAT yielded a binding signal (log2 normalized intensity) of 2.75. CTGCCTGCTTGGCCTCTCCACTTGGGTATC was tested, and the binding signal (log2 normalized intensity) was -0.182. TTGCCCTTTAGTTATCTCTTCTTTCTGTAT gave a binding signal (log2 normalized intensity) of 2.37. TCCAAAATATTTGCAGTGAGAAGAGGAAAA gave a binding signal (log2 normalized intensity) of -1.29. TCAAAAATGCTTTACAAGGTGGTTGCTGTT gave a binding signal (log2 normalized intensity) of 1.15. In the case of CAGTAAGAGCATCAGCAATGAACAAAGGTC, the binding signal (log2 normalized intensity) is reported as 5.1. CCGCATTTTCCTTTGTTGGTTTTGCCCGAG showed a binding signal (log2 normalized intensity) of 2.03. AAGAGAGCCATTGGTGTAACTCTGGGTCTG was tested, and the binding signal (log2 normalized intensity) was 1.25. In the case of CACTGAAGTGAGTTAATAAATACTGGAGGA, the binding signal (log2 normalized intensity) is reported as -1.3. Sequence GTTGAGGTCAGACATGGCTGTATGTGACAT has a binding signal (log2 normalized intensity) of 1.09. In the case of TCAGGGAGCTTTTACCTCAAATAAAGGTCA, the binding signal (log2 normalized intensity) is reported as 3.83. TGACAAAGACAGATTAGATCTGCGTAAGGG was tested, and the binding signal (log2 normalized intensity) was -1.24. TATCTTCAATGATAAGGAATGAGGAGTCAG gave a binding signal (log2 normalized intensity) of -0.96. With TGACTTTCAGAAAGTCCTTGGAAACTGTTC the binding signal (log2 normalized intensity) was 0.358. CAATGGCCTTGCTGCGGATCAAAGGAGCTG showed a binding signal (log2 normalized intensity) of -1.03. TGGTGCTATGTCCCTGACTGTGTGGCTTGC showed a binding signal (log2 normalized intensity) of 0.908. In the case of CCACTTGGTGACTGTCATTTCCTTACAAAC, the binding signal (log2 normalized intensity) is reported as -1.24. AGAGGATTAAAAGATAAAACATTGTACCTT showed a binding signal (log2 normalized intensity) of 2.73. With GAGCCAGTGAAGACTGAAAAGAGATAACTA the binding signal (log2 normalized intensity) was -1.36. With CCCTTATCAGCTTATCTCAAGAATTGTCTA the binding signal (log2 normalized intensity) was 0.938. In the case of GATCAGTGAGAAGAGAAACACATGCAATCA, the binding signal (log2 normalized intensity) is reported as -1.25.
